Test results published in the supplement of paper PMC4604168 (melanoma cell lines).
The list shows a part of the results. Single values are uncertain, as repeats are few or missing.

Tests used:
Test in all cases: cell count relative to DMSO control; melanoma cells; higher = more viable cells
Settings in all cases: library dose: low library concentration; 72 h
[1] = test system: COLO792
[2] = test system: COLO800
[3] = test system: COLO829
[4] = test system: G361
[5] = test system: IPC-298
[6] = test system: IST-MEL1
[7] = test system: LB2518-MEL
[8] = test system: LOXIMVI
[9] = test system: MEL-HO
[10] = test system: MZ2-MEL
[11] = test system: MeWo
[12] = test system: RPMI7951
[13] = test system: RVH-421
[14] = test system: SkMel28
[15] = test system: SkMel2
[16] = test system: SkMel30
[17] = test system: SkMel5
[18] = test system: UACC257
[19] = test system: UACC62
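Further: cell number obtained by counting DAPI-stained nuclei in high-throughput microscope images with image analysis software, screen run in 1,536-well plates.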

Row | Structure (SMILES) | cell count [1] | cell count [2] | cell count [3] | cell count [4] | cell count [5] | cell count [6] | cell count [7] | cell count [8] | cell count [9] | cell count [10] | cell count [11] | cell count [12] | cell count [13] | cell count [14] | cell count [15] | cell count [16] | cell count [17] | cell count [18] | cell count [19]
1 | C=C(c1ccc(C(=O)O)cc1)c1cc2c(cc1C)C(C)(C)CCC2(C)C [Bexarotene] + O=C(Oc1ccc([N+](=O)[O-])cc1)N1CCC(C(O)(c2ccc3c(c2)OCO3)c2ccc3c(c2)OCO3)CC1 [JZL184] (first compound 2 µM, partner dose 1 µM) | 88.8% | 139% | 108% | 85.9% | 107% | 105% | 127% | 97% | 98.8% | 106% | 100% | 94.8% | 86.8% | 85.3% | 94.3% | 96.5% | 96.1% | 113% | 99.3%
2 | COc1ccc(C2=N[C@@H](c3ccc(Cl)cc3)[C@@H](c3ccc(Cl)cc3)N2C(=O)N2CCNC(=O)C2)c(OC(C)C)c1 [Nutlin-3] + Cc1cc(SCc2sc(-c3ccc(C(F)(F)F)c(F)c3)nc2C)ccc1OCC(=O)O [GW0742] (first compound 0.1 µM, partner dose 2 µM) | 100% | 117% | 80.7% | 80% | 105% | 107% | 104% | 113% | 92% | 98.9% | 99.4% | 98.5% | 103% | 89.6% | 93% | 82.9% | 92.3% | 101% | 97.3%
3 | Cn1sc(=O)n(Cc2ccccc2)c1=O + Cc1cc(SCc2sc(-c3ccc(C(F)(F)F)c(F)c3)nc2C)ccc1OCC(=O)O [GW0742] (first compound 0.4 µM, partner dose 2 µM) | 96.9% | 91.3% | 115% | 113% | 97.8% | 94.2% | 90.8% | 94.4% | 101% | 95.9% | 106% | 82.7% | 125% | 94.2% | 99.4% | 93.1% | 107% | 104% | 93%
4 | Cn1c(=O)n(-c2ccc(C(C)(C)C#N)cc2)c2c3cc(-c4cnc5ccccc5c4)ccc3ncc21 + C/C(O)=C(\C#N)C(=O)Nc1cc(Br)ccc1Br [LFM-A13] (first compound 0.004 µM, partner dose 2 µM) | 81.9% | 81% | 89.5% | 98.4% | 96.1% | 96.1% | 101% | 47.4% | 89.2% | 91% | 95.5% | 86.1% | 102% | 73% | 91.2% | 94.1% | 118% | 83.1% | 76.2%
5 | Cn1c(=O)n(-c2ccc(C(C)(C)C#N)cc2)c2c3cc(-c4cnc5ccccc5c4)ccc3ncc21 + Cc1cc(SCc2sc(-c3ccc(C(F)(F)F)c(F)c3)nc2C)ccc1OCC(=O)O [GW0742] (first compound 0.004 µM, partner dose 2 µM) | 101% | 102% | 88.4% | 105% | 100% | 93.5% | 104% | 143% | 111% | 108% | 107% | 86.2% | 97.6% | 97.4% | 95.8% | 102% | 103% | 96% | 106%
6 | Cc1cc(Nc2cc(N3CCN(C)CC3)nc(/C=C/c3ccccc3)n2)n[nH]1 + O=C(Oc1ccc([N+](=O)[O-])cc1)N1CCC(C(O)(c2ccc3c(c2)OCO3)c2ccc3c(c2)OCO3)CC1 [JZL184] (first compound 0.04 µM, partner dose 1 µM) | 94.8% | 105% | 89.6% | 87% | 105% | 110% | 112% | 216% | 88.2% | 106% | 107% | 90.2% | 96.3% | 90.8% | 91.2% | 84.7% | 104% | 118% | 114%
7 | Cn1sc(=O)n(Cc2ccccc2)c1=O + C/C(O)=C(\C#N)C(=O)Nc1cc(Br)ccc1Br [LFM-A13] (first compound 0.4 µM, partner dose 2 µM) | 99.3% | 74.3% | 88.9% | 104% | 98.5% | 94.8% | 96.8% | 72% | 94.9% | 92.3% | 96.7% | 94.6% | 122% | 95.2% | 102% | 95.1% | 92.1% | 81.3% | 101%
8 | O=C(Nc1cc(C(F)(F)F)cc(C(F)(F)F)c1)c1cc(Cl)ccc1O + C/C(O)=C(\C#N)C(=O)Nc1cc(Br)ccc1Br [LFM-A13] (first compound 0.016 µM, partner dose 2 µM) | 105% | 114% | 87.2% | 95.5% | 101% | 86.5% | 110% | 73% | 98% | 99.5% | 90.9% | 108% | 95.2% | 86.4% | 99% | 99.7% | 119% | 73% | 80.9%
9 | CC1(C)CCC(c2ccc(Cl)cc2)=C(CN2CCN(c3ccc(C(=O)NS(=O)(=O)c4ccc(N[C@H](CCN5CCOCC5)CSc5ccccc5)c(S(=O)(=O)C(F)(F)F)c4)cc3)CC2)C1 + O=C(Oc1ccc([N+](=O)[O-])cc1)N1CCC(C(O)(c2ccc3c(c2)OCO3)c2ccc3c(c2)OCO3)CC1 [JZL184] (first compound 0.4 µM, partner dose 1 µM) | 50.9% | 122% | 119% | 90% | 95.1% | 70.6% | 98.7% | 43.9% | 77.1% | 87.8% | 77.8% | 46.8% | 91.8% | 79.8% | 98.8% | 82.4% | 65.8% | 118% | 83.6%
10 | NC1(c2ccc(-c3nc4ccn5c(=O)[nH]nc5c4cc3-c3ccccc3)cc2)CCC1 + O=C(Oc1ccc([N+](=O)[O-])cc1)N1CCC(C(O)(c2ccc3c(c2)OCO3)c2ccc3c(c2)OCO3)CC1 [JZL184] (first compound 0.4 µM, partner dose 1 µM) | 59% | 79.4% | 83.9% | 111% | 99.8% | 91.5% | 99.6% | 120% | 90.1% | 95.2% | 94.6% | 92.3% | 90.2% | 74% | 79.6% | 91.5% | 97.4% | 91.8% | 84.3%
11 | CS(=O)(=O)CCNCc1ccc(-c2ccc3ncnc(Nc4ccc(OCc5cccc(F)c5)c(Cl)c4)c3c2)o1 [lapatinib] + O=C(Oc1ccc([N+](=O)[O-])cc1)N1CCC(C(O)(c2ccc3c(c2)OCO3)c2ccc3c(c2)OCO3)CC1 [JZL184] (first compound 0.8 µM, partner dose 1 µM) | 77.7% | 76.4% | 102% | 112% | 101% | 107% | 109% | 80% | 113% | 92.7% | 92.6% | 87.4% | 116% | 89.1% | 99.1% | 64.3% | 96.4% | 120% | 80.7%
12 | NC(=O)c1ccc(N(C(N)=O)c2c(F)cccc2F)nc1-c1ccc(F)cc1F + Cc1cc(SCc2sc(-c3ccc(C(F)(F)F)c(F)c3)nc2C)ccc1OCC(=O)O [GW0742] (first compound 0.4 µM, partner dose 2 µM) | 86.7% | 135% | 135% | 104% | 102% | 90.3% | 97.1% | 100% | 78.9% | 107% | 101% | 98.8% | 111% | 100% | 105% | 119% | 95.9% | 86.3% | 90.2%
13 | CCCS(=O)(=O)Nc1ccc(F)c(C(=O)c2c[nH]c3ncc(Cl)cc23)c1F + C/C(O)=C(\C#N)C(=O)Nc1cc(Br)ccc1Br [LFM-A13] (first compound 0.08 µM, partner dose 2 µM) | 91.6% | 87.3% | 102% | 84.6% | 104% | 94.2% | 106% | 64.5% | 86.1% | 87.2% | 92.8% | 103% | 73.9% | 65.4% | 99.9% | 82.3% | 104% | 70.2% | 79.2%
14 | CC(=O)O[C@@]12CO[C@@H]1C[C@H](O)[C@@]1(C)C(=O)[C@H](O)C3=C(C)[C@@H](OC(=O)[C@H](O)[C@@H](NC(=O)OC(C)(C)C)c4ccccc4)C[C@@](O)([C@@H](OC(=O)c4ccccc4)[C@H]21)C3(C)C [Docetaxel] + C/C(O)=C(\C#N)C(=O)Nc1cc(Br)ccc1Br [LFM-A13] (first compound 0.0001 µM, partner dose 2 µM) | 28.5% | 39.9% | 39.2% | 26.4% | 65.1% | 69.2% | 68.3% | 73.6% | 60.1% | 52.8% | 38.3% | 37.8% | 64.2% | 34.3% | 41% | 41.8% | 73.8% | 31.8% | 32.8%
15 | COc1ccc(C2=N[C@@H](c3ccc(Cl)cc3)[C@@H](c3ccc(Cl)cc3)N2C(=O)N2CCNC(=O)C2)c(OC(C)C)c1 [Nutlin-3] + O=C(Oc1ccc([N+](=O)[O-])cc1)N1CCC(C(O)(c2ccc3c(c2)OCO3)c2ccc3c(c2)OCO3)CC1 [JZL184] (first compound 0.1 µM, partner dose 1 µM) | 93.1% | 105% | 77.3% | 80.4% | 86.7% | 116% | 99.4% | 67.2% | 96.5% | 94.7% | 112% | 95.8% | 81.9% | 87.2% | 86.5% | 79.2% | 81.3% | 88.8% | 85.3%
